# In the supplement of paper PMC12423691:
# Some of the results follow. Binding of human transcription factors and regulators to the viral nucleoprotein by AlphaScreen, crude cell-free proteins, amounts not normalised, one pass. Fold of the Venus control; higher = more signal. No active / inactive call. Single-pass screen; sequences are the whole Swiss-Prot entries looked up by name.
# B1: PTF1A, Q7RTS3 (protein)
# chain: MDAVLLEHFPGGLDAFPSSYFDEDDFFTDQSSRDPLEDGDELLADEQAEVEFLSHQLHEYCYRDGACLLLQPAPPAAPLALAPPSSGGLGEPDDGGGGGYCCETGAPPGGFPYSPGSPPSCLAYPCAGAAVLSPGARLRGLSGAAAAAARRRRRVRSEAELQQLRQAANVRERRRMQSINDAFEGLRSHIPTLPYEKRLSKVDTLRLAIGYINFLSELVQADLPLRGGGAGGCGGPGGGGRLGGDSPGSQAQKVIICHRGTRSPSPSDPDYGLPPLAGHSLSWTDEKQLKEQNIIRTAKVWTPEDPRKLNSKSSFNNIENEPPFEFVS
# B2: MTDH, Q86UE4 (protein)
# chain: MAARSWQDELAQQAEEGSARLREMLSVGLGFLRTELGLDLGLEPKRYPGWVILVGTGALGLLLLFLLGYGWAAACAGARKKRRSPPRKREEAAAVPAAAPDDLALLKNLRSEEQKKKNRKKLSEKPKPNGRTVEVAEGEAVRTPQSVTAKQPPEIDKKNEKSKKNKKKSKSDAKAVQNSSRHDGKEVDEGAWETKISHREKRQQRKRDKVLTDSGSLDSTIPGIENTITVTTEQLTTASFPVGSKKNKGDSHLNVQVSNFKSGKGDSTLQVSSGLNENLTVNGGGWNEKSVKLSSQISAGEEKWNSVSPASAGKRKTEPSAWSQDTGDANTNGKDWGRSWSDRSIFSGIGSTAEPVSQSTTSDYQWDVSRNQPYIDDEWSGLNGLSSADPNSDWNAPAEEWGNWVDEERASLLKSQEPIPDDQKVSDDDKEKGEGALPTGKSKKKKKKKKKQGEDNSTAQDTEELEKEIREDLPVNTSKTRPKQEKAFSLKTISTSDPAEVLVKNSQPIKTLPPATSTEPSVILSKSDSDKSSSQVPPILQETDKSKSNTKQNSVPPSQTKSETSWESPKQIKKKKKARRET
# B3: EOMES, O95936 (protein)
# chain: MQLGEQLLVSSVNLPGAHFYPLESARGGSGGSAGHLPSAAPSPQKLDLDKASKKFSGSLSCEAVSGEPAAASAGAPAAMLSDTDAGDAFASAAAVAKPGPPDGRKGSPCGEEELPSAAAAAAAAAAAAAATARYSMDSLSSERYYLQSPGPQGSELAAPCSLFPYQAAAGAPHGPVYPAPNGARYPYGSMLPPGGFPAAVCPPGRAQFGPGAGAGSGAGGSSGGGGGPGTYQYSQGAPLYGPYPGAAAAGSCGGLGGLGVPGSGFRAHVYLCNRPLWLKFHRHQTEMIITKQGRRMFPFLSFNINGLNPTAHYNVFVEVVLADPNHWRFQGGKWVTCGKADNNMQGNKMYVHPESPNTGSHWMRQEISFGKLKLTNNKGANNNNTQMIVLQSLHKYQPRLHIVEVTEDGVEDLNEPSKTQTFTFSETQFIAVTAYQNTDITQLKIDHNPFAKGFRDNYDSSHQIVPGGRYGVQSFFPEPFVNTLPQARYYNGERTVPQTNGLLSPQQSEEVANPPQRWLVTPVQQPGTNKLDISSYESEYTSSTLLPYGIKSLPLQTSHALGYYPDPTFPAMAGWGGRGSYQRKMAAGLPWTSRTSPTVFSEDQLSKEKVKEEIGSSWIETPPSIKSLDSNDSGVYTSACKRRRLSPSNSSNENSPSIKCEDINAEEYSKDTSKGMGGYYAFYTTP
# B4: TRIM52, Q96A61 (protein)
# chain: MAGYATTPSPMQTLQEEAVCAICLDYFKDPVSISCGHNFCRGCVTQLWSKEDEEDQNEEEDEWEEEEDEEAVGAMDGWDGSIREVLYRGNADEELFQDQDDDELWLGDSGITNWDNVDYMWDEEEEEEEEDQDYYLGGLRPDLRIDVYREEEILEAYDEDEDEELYPDIHPPPSLPLPGQFTCPQCRKSFTRRSFRPNLQLANMVQIIRQMCPTPYRGNRSNDQGMCFKHQEALKLFCEVDKEAICVVCRESRSHKQHSVLPLEEVVQEYQEIKLETTLVGILQIEQESIHSKAYNQ
# B5: TRIM62, Q9BVG3 (protein)
# chain: MACSLKDELLCSICLSIYQDPVSLGCEHYFCRRCITEHWVRQEAQGARDCPECRRTFAEPALAPSLKLANIVERYSSFPLDAILNARRAARPCQAHDKVKLFCLTDRALLCFFCDEPALHEQHQVTGIDDAFDELQRELKDQLQALQDSEREHTEALQLLKRQLAETKSSTKSLRTTIGEAFERLHRLLRERQKAMLEELEADTARTLTDIEQKVQRYSQQLRKVQEGAQILQERLAETDRHTFLAGVASLSERLKGKIHETNLTYEDFPTSKYTGPLQYTIWKSLFQDIHPVPAALTLDPGTAHQRLILSDDCTIVAYGNLHPQPLQDSPKRFDVEVSVLGSEAFSSGVHYWEVVVAEKTQWVIGLAHEAASRKGSIQIQPSRGFYCIVMHDGNQYSACTEPWTRLNVRDKLDKVGVFLDYDQGLLIFYNADDMSWLYTFREKFPGKLCSYFSPGQSHANGKNVQPLRINTVRI
# B6: ID3, Q02535 (protein)
# chain: MKALSPVRGCYEAVCCLSERSLAIARGRGKGPAAEEPLSLLDDMNHCYSRLRELVPGVPRGTQLSQVEILQRVIDYILDLQVVLAEPAPGPPDGPHLPIQTAELTPELVISNDKRSFCH
# B7: RNF25, Q96BH1 (protein)
# chain: MAASASAAAGEEDWVLPSEVEVLESIYLDELQVIKGNGRTSPWEIYITLHPATAEDQDSQYVCFTLVLQVPAEYPHEVPQISIRNPRGLSDEQIHTILQVLGHVAKAGLGTAMLYELIEKGKEILTDNNIPHGQCVICLYGFQEKEAFTKTPCYHYFHCHCLARYIQHMEQELKAQGQEQEQERQHATTKQKAVGVQCPVCREPLVYDLASLKAAPEPQQPMELYQPSAESLRQQEERKRLYQRQQERGGIIDLEAERNRYFISLQQPPAPAEPESAVDVSKGSQPPSTLAAELSTSPAVQSTLPPPLPVATQHICEKIPGTRSNQQRLGETQKAMLDPPKPSRGPWRQPERRHPKGGECHAPKGTRDTQELPPPEGPLKEPMDLKPEPHSQGVEGPPQEKGPGSWQGPPPRRTRDCVRWERSKGRTPGSSYPRLPRGQGAYRPGTRRESLGLESKDGS
# B8: ZNF837, Q96EG3 (protein)
# chain: MEAPAQKAGQGGLPKADAQGASGAREKRPEEPRPLEEDRAGSRPTQKGDLRGAAGGRTTPPGGGSRGCSLGVSPGPGTRHSAGTRPLVREPCGPTSSQNPELVIPEGLQAREGPCRSPARGGDCSRNSCLAWHRGAPAGETPPVCDPCPERIQNHPRTQLCEVHTDCWPCQPGTGAPTCPRTPKPTSRGRNPLVEQPRACACGEAFAWRALRIPQERLQATEEPRPCARCGKRFRPNQQQQAGKSPPVCPECGQTSRPRPIVPDPPAQRLYACDECGKAFTRTSSLLQHQRIHTGERPYECAECGKAFVRCSGLYRHQKTHSAERHRRGPVLARRAFRLGCPPCGDYSERSPRRGSGAGEKPYECADCAKAFGLFSHLVEHRRVHTGEKPYACPECGKAFNQRSNLSRHQRTHSSAKPYACPLCEKAFKGRSGLVQHQRAHTGERPYGCSECGKTFRGCSELRQHERLHSGEKPYICRDCGKAFVRNCSLVRHLRTHTGERPYACGDCGRAFSQRSNLNEHRKRHGGRAAP
# B9: SREBF1, P36956 (protein)
# chain: MDEPPFSEAALEQALGEPCDLDAALLTDIEDMLQLINNQDSDFPGLFDPPYAGSGAGGTDPASPDTSSPGSLSPPPATLSSSLEAFLSGPQAAPSPLSPPQPAPTPLKMYPSMPAFSPGPGIKEESVPLSILQTPTPQPLPGALLPQSFPAPAPPQFSSTPVLGYPSPPGGFSTGSPPGNTQQPLPGLPLASPPGVPPVSLHTQVQSVVPQQLLTVTAAPTAAPVTTTVTSQIQQVPVLLQPHFIKADSLLLTAMKTDGATVKAAGLSPLVSGTTVQTGPLPTLVSGGTILATVPLVVDAEKLPINRLAAGSKAPASAQSRGEKRTAHNAIEKRYRSSINDKIIELKDLVVGTEAKLNKSAVLRKAIDYIRFLQHSNQKLKQENLSLRTAVHKSKSLKDLVSACGSGGNTDVLMEGVKTEVEDTLTPPPSDAGSPFQSSPLSLGSRGSGSGGSGSDSEPDSPVFEDSKAKPEQRPSLHSRGMLDRSRLALCTLVFLCLSCNPLASLLGARGLPSPSDTTSVYHSPGRNVLGTESRDGPGWAQWLLPPVVWLLNGLLVLVSLVLLFVYGEPVTRPHSGPAVYFWRHRKQADLDLARGDFAQAAQQLWLALRALGRPLPTSHLDLACSLLWNLIRHLLQRLWVGRWLAGRAGGLQQDCALRVDASASARDAALVYHKLHQLHTMGKHTGGHLTATNLALSALNLAECAGDAVSVATLAEIYVAAALRVKTSLPRALHFLTRFFLSSARQACLAQSGSVPPAMQWLCHPVGHRFFVDGDWSVLSTPWESLYSLAGNPVDPLAQVTQLFREHLLERALNCVTQPNPSPGSADGDKEFSDALGYLQLLNSCSDAAGAPAYSFSISSSMATTTGVDPVAKWWASLTAVVIHWLRRDEEAAERLCPLVEHLPRVLQESERPLPRAALHSFKAARALLGCAKAESGPASLTICEKASGYLQDSLATTPASSSIDKAVQLFLCDLLLVVRTSLWRQQQPPAPAPAAQGTSSRPQASALELRGFQRDLSSLRRLAQSFRPAMRRVFLHEATARLMAGASPTRTHQLLDRSLRRRAGPGGKGGAVAELEPRPTRREHAEALLLASCYLPPGFLSAPGQRVGMLAEAARTLEKLGDRRLLHDCQQMLMRLGGGTTVTSS
# B10: BACH1, O14867 (protein)
# chain: MSLSENSVFAYESSVHSTNVLLSLNDQRKKDVLCDVTIFVEGQRFRAHRSVLAACSSYFHSRIVGQADGELNITLPEEVTVKGFEPLIQFAYTAKLILSKENVDEVCKCVEFLSVHNIEESCFQFLKFKFLDSTADQQECPRKKCFSSHCQKTDLKLSLLDQRDLETDEVEEFLENKNVQTPQCKLRRYQGNAKASPPLQDSASQTYESMCLEKDAALALPSLCPKYRKFQKAFGTDRVRTGESSVKDIHASVQPNERSENECLGGVPECRDLQVMLKCDESKLAMEPEETKKDPASQCPTEKSEVTPFPHNSSIDPHGLYSLSLLHTYDQYGDLNFAGMQNTTVLTEKPLSGTDVQEKTFGESQDLPLKSDLGTREDSSVASSDRSSVEREVAEHLAKGFWSDICSTDTPCQMQLSPAVAKDGSEQISQKRSECPWLGIRISESPEPGQRTFTTLSSVNCPFISTLSTEGCSSNLEIGNDDYVSEPQQEPCPYACVISLGDDSETDTEGDSESCSAREQECEVKLPFNAQRIISLSRNDFQSLLKMHKLTPEQLDCIHDIRRRSKNRIAAQRCRKRKLDCIQNLESEIEKLQSEKESLLKERDHILSTLGETKQNLTGLCQKVCKEAALSQEQIQILAKYSAADCPLSFLISEKDKSTPDGELALPSIFSLSDRPPAVLPPCARGNSEPGYARGQESQQMSTATSEQAGPAEQCRQSGGISDFCQQMTDKCTTDE
# Biological target: nucleoprotein N of Crimean-Congo hemorrhagic fever virus
# Assay: AlphaScreen luminescence signal relative to Venus negative control (fold); higher = stronger binding to CCHFV N
# Experimental: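 AlphaScreen binding of cell-free made, FLAG-GST-tagged human transcription factors and regulators (crude translation products) to biotinylated N protein; signal as fold of the FLAG-GST-Venus control. One pass.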
row,Binder,AlphaScreen luminescence signal
1,B1,1.44
2,B2,30.8
3,B3,5.21
4,B4,2.79
5,B5,2.33
6,B6,0.837
7,B7,9.26
8,B8,1.35
9,B9,2.14
10,B10,1.12
